# What was measured:
# [1] = target: Peptidyl-prolyl cis-trans isomerase A (UniProt P62937); assay: cross-linking mass spectrometry
# [2] = target: Calreticulin (UniProt P27797); assay: cross-link between two proteins; cross-linking mass spectrometry
# Sequence of UniProt P27797 (P27797 whole entry): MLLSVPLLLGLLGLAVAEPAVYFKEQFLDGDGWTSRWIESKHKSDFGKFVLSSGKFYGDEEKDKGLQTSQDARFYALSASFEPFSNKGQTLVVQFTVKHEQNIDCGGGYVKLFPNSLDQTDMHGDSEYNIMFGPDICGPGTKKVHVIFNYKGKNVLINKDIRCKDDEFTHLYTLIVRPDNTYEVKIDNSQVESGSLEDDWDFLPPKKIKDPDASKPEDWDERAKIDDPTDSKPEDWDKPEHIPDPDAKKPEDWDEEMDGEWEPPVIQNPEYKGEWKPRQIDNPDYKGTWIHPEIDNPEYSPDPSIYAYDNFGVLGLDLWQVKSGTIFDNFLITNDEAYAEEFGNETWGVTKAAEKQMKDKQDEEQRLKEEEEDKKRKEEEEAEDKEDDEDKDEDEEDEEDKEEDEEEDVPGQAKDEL
# Sequence of UniProt P62937 (P62937 whole entry): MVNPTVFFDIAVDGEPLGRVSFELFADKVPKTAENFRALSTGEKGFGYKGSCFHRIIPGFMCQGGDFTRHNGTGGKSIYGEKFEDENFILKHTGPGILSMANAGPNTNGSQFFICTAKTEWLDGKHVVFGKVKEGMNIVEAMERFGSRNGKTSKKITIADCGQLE
# Sequence of Integrin beta-1 (chain, as listed by the source): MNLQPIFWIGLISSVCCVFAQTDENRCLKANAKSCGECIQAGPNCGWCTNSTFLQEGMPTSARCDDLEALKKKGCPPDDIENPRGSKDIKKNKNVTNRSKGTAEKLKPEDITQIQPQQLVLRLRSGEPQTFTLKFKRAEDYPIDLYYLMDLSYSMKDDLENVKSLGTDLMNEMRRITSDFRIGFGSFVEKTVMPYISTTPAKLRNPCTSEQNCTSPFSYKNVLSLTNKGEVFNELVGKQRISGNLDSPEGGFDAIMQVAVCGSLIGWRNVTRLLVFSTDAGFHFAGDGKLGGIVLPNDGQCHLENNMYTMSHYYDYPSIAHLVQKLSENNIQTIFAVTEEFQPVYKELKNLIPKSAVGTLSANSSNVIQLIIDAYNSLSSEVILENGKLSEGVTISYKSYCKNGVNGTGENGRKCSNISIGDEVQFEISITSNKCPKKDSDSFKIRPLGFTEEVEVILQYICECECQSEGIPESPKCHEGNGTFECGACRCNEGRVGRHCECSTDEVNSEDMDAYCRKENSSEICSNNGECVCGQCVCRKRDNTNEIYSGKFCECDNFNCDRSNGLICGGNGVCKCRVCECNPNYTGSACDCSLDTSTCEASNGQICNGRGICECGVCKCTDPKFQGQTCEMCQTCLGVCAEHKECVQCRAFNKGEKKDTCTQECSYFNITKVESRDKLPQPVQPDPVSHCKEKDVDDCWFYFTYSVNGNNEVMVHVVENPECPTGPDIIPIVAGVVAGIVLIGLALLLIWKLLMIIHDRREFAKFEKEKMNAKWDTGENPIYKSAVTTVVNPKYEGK
# Sequence of Alpha-enolase (chain, as listed by the source): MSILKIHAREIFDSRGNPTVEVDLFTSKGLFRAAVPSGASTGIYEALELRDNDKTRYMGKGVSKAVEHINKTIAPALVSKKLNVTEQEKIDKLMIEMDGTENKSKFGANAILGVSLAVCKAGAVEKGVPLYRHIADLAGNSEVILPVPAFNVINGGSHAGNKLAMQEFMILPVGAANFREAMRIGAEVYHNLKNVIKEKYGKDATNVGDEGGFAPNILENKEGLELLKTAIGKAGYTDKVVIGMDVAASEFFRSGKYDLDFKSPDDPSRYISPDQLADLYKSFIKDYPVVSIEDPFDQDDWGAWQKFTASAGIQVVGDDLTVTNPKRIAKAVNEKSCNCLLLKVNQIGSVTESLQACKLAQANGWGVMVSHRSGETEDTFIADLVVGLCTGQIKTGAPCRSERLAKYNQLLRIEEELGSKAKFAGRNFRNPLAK
Substance,listed as a hit [1],listed as a hit [2]
Alpha-enolase,yes,
Integrin beta-1,,yes
